Data reported in the supplement of paper PMC10338343.
± gives the standard deviation. Only a part is listed here, and it is no random draw.

These sequences were tested on MIWI (PIWIL1) piRISC loaded with piRNA #1 (30 nt) (assay: pre-steady-state target cleavage rate (min^-1); MIWI and MILI are mouse PIWI proteins and EfPiwi is from a freshwater sponge; tags in brackets are library labels; higher = faster piRNA-guided slicing of the target). Conditions: guide: piRNA #1 5'p-UGAGGUAGUAGGUUGUAUAGUAUCCAGAGG; auxiliary factor: 500 nM mouse GTSF1.
Procedure, shortened: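 In this Cleave-'n-Seq assay, uncleaved targets were sequenced and normalised to depth and to weakly complementary targets. They came from a transcribed, DNA-blocked target RNA library […] mixed with 1 nM active affinity-purified piRISC carrying one synthetic guide, with or without 500 nM GTSF1 partner protein, in HEPES–potassium acetate buffer at 33 °C for 0–8 or 0–960 min. After three trials were pooled and k3 was capped at 0.0001 min^-1, the pre-steady-state cleavage rate was obtained from a burst-and-steady-state fit.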
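Further: 1 nM active piRISC with 0.1 nM target library at 33 °C single turnover.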

| Sequence | pre-steady-state target cleavage rate |
| --- | --- |
| GGACUGGAUACUAUACAACGUACUACCUGA | 0.377 ± 0.047 |
| GGACUGCAUACUAUACAACCUACUUCCUCA | 0.00834 ± 0.0022 |
| GGAGUGGAUACUAUAUCAACCUACUACCUCA | 0.333 ± 0.064 |
| GGUCUGGAUACUAUACUUGCUACUACCUCA | 0.0549 ± 0.013 |
| GGAGACGAUACUAUACAACCUACUUACCUCA | 1.41 ± 0.078 |
| CCUCUGGAUACUAUACAACCUACUUCCUGA | 0.259 ± 0.04 |
| GGAGACCAUACUAUACAACCUACUCCCUCA | 1.03 ± 0.082 |
| GGAGACGAUACAAUACAACGUACUACCUCA | 0.37 ± 0.029 |
| GGAGACCUUACUAUACAAGCUACUACCUCA | 0.888 ± 0.051 |
| GGAGAGGAUACUAUACUUGCUACUACCUCA | 0.039 ± 0.008 |
| CCUCUGUAUACUAUACAACCUACUACCUCA | 1.83 ± 0.097 |
| GGAGUGCAUACUAUACAACCUACUUCCUCA | 0.0214 ± 0.0055 |
| GGAGACCAUACUAUACAACCUAGUACCUCA | 0.456 ± 0.03 |
| GGAGACCAUUCUAUUCAACCUACUACCUCA | 0.548 ± 0.058 |
| CCUCUGGAUUGUAUACAACCUACUACCUCA | 1.5 ± 0.096 |
| GGAGAGGUUACUAUACAACGUACUACCUCA | 0.0314 ± 0.0079 |
| GGACUGGAUACUAUACAUGGUACUACCUCA | 0.0159 ± 0.0032 |
| GCUCUGGAUAGUAUUCAACCUACUACCUCA | 0.849 ± 0.044 |
| GCUCUGGAUACUAUACAACCUACUGACCUCA | 0.687 ± 0.047 |
| GGAGACCUAUGAUAUGUUGCUUGAACCUCA | < 0.0001 |

| Sequence | pre-steady-state target cleavage rate |
| --- | --- |
| GGAGACCUAACUAUACAACCCACUACCUCA | 0.253 ± 0.02 |
| GGAGACCUUACUAUACAACCUACAACCACA | 0.265 ± 0.026 |
| GGUCUGGAUACUAUACUAGCUACUACCUCA | 0.543 ± 0.04 |
| GGAGUGGAUAGUAUACAACCUACUACCUGA | 0.164 ± 0.036 |
| GGAGAGGAAACUAUACAACCUACUACCUGA | 0.256 ± 0.037 |
| GGAGUGGAUACUAUAACAACCUACUACCUCA | 1.45 ± 0.12 |
| GGAGACGAUAGUAUACAACCUACUACGUCA | 0.0598 ± 0.018 |
| GGAGACCUUACUAUACGACCUACUACCUCA | 0.907 ± 0.076 |
| GGUCUGGAUACUAUACAACGUAGUACCUCA | 0.154 ± 0.042 |
| GGACUGGAUACUAUACAACCUACUACACUCA | 0.617 ± 0.11 |
| GGAGACCUAUGAUAUCAAGGAACUACCUCA | < 0.0001 |
| GGACUGGAUACUAUACAAACUACUACCUCA | 0.914 ± 0.042 |
| CCUCUGGAUACUAUACAAUCCUACUACCUCA | 0.013 ± 0.0047 |
| GGAGAGGAUAUUAUACAACCUACUACCUCA | 1.12 ± 0.062 |
| GCUCUGGAUACUAUACAAGCUAGUACCUCA | 0.655 ± 0.044 |
| GGAGAGGAUACUAUACAUCCUUCUACCUCA | 0.21 ± 0.019 |
| GGACUGGAUACUAUACAACGAACUACCUCA | 0.0145 ± 0.0037 |
| GCUCUGGAUACUUUACAACCUACUACCUCA | 1.87 ± 0.11 |
| GGAGACGAUACUAAAGAACCUACUACCUCA | 1.01 ± 0.066 |
| GGAGAGGAUUACUAUACAACCUACUACCUCA | 1.38 ± 0.08 |
